Measurements as given in the supplement of paper PMC4604168 (melanoma cell lines).
This is one part of the list. Many values rest on one well or one pass, so single values are uncertain.

What was measured:
Test in all cases: cell count relative to DMSO control; melanoma cells; higher = more viable cells
Conditions in all cases: library dose: standard library concentration; 72 h
[1] = tested on: SkMel30
[2] = tested on: SkMel5
[3] = tested on: UACC257
[4] = tested on: UACC62
[5] = tested on: WM115
[6] = tested on: WM1716
[7] = tested on: WM1745
[8] = tested on: WM3526
[9] = tested on: WM3619
[10] = tested on: WM451Lu
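Also: cells treated in 1,536-well plates, then fixed and DAPI-stained, with nuclei counted from automated high-throughput microscope images.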

Structure (SMILES) | cell count [1] | cell count [2] | cell count [3] | cell count [4] | cell count [5] | cell count [6] | cell count [7] | cell count [8] | cell count [9] | cell count [10]
N#Cc1c(O)c2c(-c3ccc(-c4ccccc4O)cc3)csc2[nH]c1=O + Cn1cc(/C=C2\C(=O)Nc3cccnc32)c2ccccc21 [GW441756] (first compound 10 µM, partner dose 2 µM) | 100% | 69% | 89.3% | 73% | 94.7% | 98.6% | 93.9% | 95.2% | 83.7% | 104%
O=S(=O)(c1ccccc1)N(CC(F)(F)F)c1ccc(C(O)(C(F)(F)F)C(F)(F)F)cc1 + Cn1cc(/C=C2\C(=O)Nc3cccnc32)c2ccccc21 [GW441756] (first compound 7 µM, partner dose 2 µM) | 89.3% | 67.6% | 73.5% | 93.1% | 110% | 85.9% | 70.5% | 75.6% | 76.3% | 84.1%
COc1ccc(COc2ccc(Cc3cnc(N)nc3N)cc2OC)cc1 + COc1cc(N2CCC(N3CCN(C)CC3)CC2)ccc1Nc1ncc(Cl)c(Nc2ccccc2S(=O)(=O)C(C)C)n1 [NVP-TAE684] (first compound 5 µM, partner dose 0.4 µM) | 111% | 58.9% | 82.5% | 78.2% | 77.2% | 76.1% | 49.9% | 67.7% | 66.5% | 76.4%
COC(=O)c1sccc1S(=O)(=O)Nc1ccc(Nc2ccccc2)cc1OC + COc1cc2ncnc(Nc3ccc(Oc4ccccc4)cc3)c2cc1OC [SrcI1] (first compound 5 µM, partner dose 10 µM) | 95.1% | 57.7% | 78% | 84.9% | 82.1% | 70.7% | 63.9% | 55.6% | 69.7% | 74.1%
COC(=O)c1sccc1S(=O)(=O)Nc1ccc(Nc2ccccc2)cc1OC + Oc1cc(-c2nc(-c3ccccc3)[nH]c2-c2ccncc2)ccc1Cl [L779450] (first compound 5 µM, partner dose 1 µM) | 84% | 72.2% | 97.1% | 74.5% | 58.2% | 76.1% | 58.9% | 43.1% | 104% | 52.9%
COc1ccc(COc2ccc(Cc3cnc(N)nc3N)cc2OC)cc1 + Cn1cc(/C=C2\C(=O)Nc3cccnc32)c2ccccc21 [GW441756] (first compound 5 µM, partner dose 2 µM) | 81% | 58.9% | 77% | 98.1% | 106% | 103% | 75.3% | 79.3% | 88.6% | 101%
O=S(=O)(c1ccccc1)N(CC(F)(F)F)c1ccc(C(O)(C(F)(F)F)C(F)(F)F)cc1 + COc1cc2ncnc(Nc3ccc(Oc4ccccc4)cc3)c2cc1OC [SrcI1] (first compound 7 µM, partner dose 10 µM) | 71.4% | 66.8% | 59.2% | 74.5% | 66.4% | 68.7% | 50.9% | 63% | 59.6% | 70.5%
O=C1NC(=O)/C(=C/c2ccc(-c3ccc(F)cc3O)o2)S1 + COc1cc(N2CCC(N3CCN(C)CC3)CC2)ccc1Nc1ncc(Cl)c(Nc2ccccc2S(=O)(=O)C(C)C)n1 [NVP-TAE684] (first compound 5 µM, partner dose 0.4 µM) | 74.5% | 40.7% | 89.3% | 91.1% | 81.2% | 90.1% | 58.8% | 66% | 62.5% | 80.6%
O=S(=O)(c1ccccc1)N(CC(F)(F)F)c1ccc(C(O)(C(F)(F)F)C(F)(F)F)cc1 + O=C(O)C(=O)Nc1sc2c(c1C(=O)O)CCNC2 [TCS401] (first compound 7 µM, partner dose 8.33333 µM) | 135% | 103% | 80.9% | 106% | 93.8% | 97.9% | 88.8% | 94.7% | 92.6% | 107%
CCN(CC)CCCCNc1ncc2cc(-c3cc(OC)cc(OC)c3)c(NC(=O)NC(C)(C)C)nc2n1 + O=C(O)C(=O)Nc1sc2c(c1C(=O)O)CCNC2 [TCS401] (first compound 0.5 µM, partner dose 8.33333 µM) | 118% | 68.8% | 106% | 113% | 81.9% | 113% | 109% | 75% | 137% | 96.9%
COC(=O)c1sccc1S(=O)(=O)Nc1ccc(Nc2ccccc2)cc1OC + O=C1NC(=O)/C(=C/c2ccc(-c3ccc(F)cc3O)o2)S1 [AS252424] (first compound 5 µM, partner dose 5 µM) | 106% | 87.5% | 96.5% | 106% | 110% | 102% | 89.3% | 96.8% | 71.1% | 97.5%
COc1ccc(-c2ccc3c(N4CCOCC4)nc(N4C[C@@H](C)O[C@@H](C)C4)nc3n2)cc1CO + c1cc(-c2cnn3cc(-c4ccc(OCCN5CCCCC5)cc4)cnc23)ccn1 [Dorsomorphin] (first compound 0.1 µM, partner dose 2 µM) | 75.3% | 55.4% | 79.1% | 85.7% | 72.1% | 59.3% | 67.5% | 75.2% | 86.9% | 70.9%
